# Source: PubChem BioAssay (Tox21)
# Values joined by “and” are separate entries in the source; they are usually repeats but may differ in a detail not shown here. Identical values can stand only once. This list was built around the results that the source calls inconclusive (neither active nor inactive); the mix of calls is not that of the screen. For some of these results: Potencies of inconclusive entries are doubtful fits and often do not repeat. The source holds several records for some structures; these can differ, active in one and inactive in another. Active and inactive are the calls of the source. Unless noted, the call rests on the fitted dose curve; in most records, active means well fitted curve in the direction sought with a large enough effect in the repeat runs; inconclusive means weak or mixed curves; inactive means no such curve, though single readings can be large; an effect the other way counts as inactive or inconclusive.
# Columns and labels:
# [1] = qHTS assay for identifying genotoxic compounds that show differential cytotoxicity against isogenic chicken DT40 cell lines with known DNA damage response pathways - wild type cell line (AID 743012); details: DT40 wild type chicken cells viability, CellTiter-Glo, 40 h; activity change, negative = cytotoxicity: at 68.4 µM (top of the series) unless noted; further: potency means the concentration at half of the fitted maximal effect; nearly all actives have a fitted effect of over 60% in size
# Procedure, shortened: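 Viability of DNA repair-proficient chicken DT40 cells was assessed by CellTiter-Glo luminescence following 40 h compound exposure at 37 C/5% CO2.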
# [2] = qHTS assay for identifying genotoxic compounds that show differential cytotoxicity against isogenic chicken DT40 cell lines with known DNA damage response pathways - Rev3 mutant cell line (AID 743014); details: chicken DT40 Rev3-/- viability, CellTiter-Glo, 40 h; activity, negative = cytotoxicity: at 68.4 µM (top of the series) unless noted; further: nearly all actives have a fitted effect of over 55% in size; further: potency means the concentration at half of the fitted maximal effect
# [3] = target: Androgen receptor (Homo sapiens) (UniProt P10275); experiment: qHTS assay to identify small molecule antagonists of the androgen receptor (AR) signaling pathway (AID 743035; active means well fitted inhibition curve with a large enough effect in the signal ratio in the repeat runs, not every such curve was filed as active; inconclusive means weak or mixed curves, or effect the other way; inactive means no such curve, though single readings can be large or run the other way; the % refers to the signal ratio; further: potency means the concentration at half of the fitted maximal effect; on activity change, negative = inhibition: on the % scale 0 is the no-effect control and ±100 the full control effect); details: HEK293 AR-UAS-bla, R1881-stimulated, beta-lactamase FRET, 16 h; activity change, negative = inhibition: at 58.5 µM (top of the series) unless noted
# Sequence of UniProt P10275 (P10275 whole entry, looked up): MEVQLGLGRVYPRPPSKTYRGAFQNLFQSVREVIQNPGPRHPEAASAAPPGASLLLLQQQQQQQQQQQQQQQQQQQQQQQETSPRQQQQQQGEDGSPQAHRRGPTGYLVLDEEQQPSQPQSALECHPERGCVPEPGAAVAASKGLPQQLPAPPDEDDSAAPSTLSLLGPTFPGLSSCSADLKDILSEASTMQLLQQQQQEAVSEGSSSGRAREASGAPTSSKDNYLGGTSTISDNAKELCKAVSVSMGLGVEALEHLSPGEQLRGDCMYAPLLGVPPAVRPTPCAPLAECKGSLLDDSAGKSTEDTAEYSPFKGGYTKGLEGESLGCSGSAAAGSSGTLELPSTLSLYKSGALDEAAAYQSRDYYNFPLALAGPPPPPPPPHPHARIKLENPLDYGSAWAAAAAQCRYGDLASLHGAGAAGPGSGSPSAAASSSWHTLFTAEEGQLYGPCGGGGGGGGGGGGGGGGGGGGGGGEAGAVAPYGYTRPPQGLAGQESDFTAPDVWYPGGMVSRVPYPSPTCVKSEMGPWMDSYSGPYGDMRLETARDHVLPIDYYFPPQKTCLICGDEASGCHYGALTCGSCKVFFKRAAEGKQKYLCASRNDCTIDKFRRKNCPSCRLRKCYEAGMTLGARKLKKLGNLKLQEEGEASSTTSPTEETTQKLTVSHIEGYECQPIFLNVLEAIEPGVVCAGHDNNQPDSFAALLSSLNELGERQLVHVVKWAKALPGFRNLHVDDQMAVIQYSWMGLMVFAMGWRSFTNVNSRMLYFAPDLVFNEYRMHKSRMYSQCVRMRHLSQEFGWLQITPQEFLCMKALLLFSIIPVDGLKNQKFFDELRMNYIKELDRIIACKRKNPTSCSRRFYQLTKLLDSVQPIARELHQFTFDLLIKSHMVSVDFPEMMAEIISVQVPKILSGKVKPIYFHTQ
# Procedure, shortened: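 Reporter HEK293 cells were exposed to compounds and R1881 overnight (16 h, 37C); beta-lactamase activity was then quantified by FRET fluorescence.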
# [4] = target: Androgen receptor (Homo sapiens) (UniProt P10275); experiment: qHTS assay to identify small molecule agonists of the androgen receptor (AR) signaling pathway (AID 743036; active means well fitted activation curve with a large enough effect in the signal ratio in the repeat runs, with a control signal flat, not every such curve was filed as active; inconclusive means weak or mixed curves, or effect the other way; inactive means no such curve, though single readings can be large or run the other way; the % refers to the signal ratio; further: potency means the concentration at half of the fitted maximal effect; on activation: on the % scale 0 is the no-effect control and ±100 the full control effect); details: HEK293 AR-UAS-bla GripTite, beta-lactamase FRET ratio, 16 h; activation: at 62.4 µM (top of the series) unless noted
# Procedure, shortened: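 Quantitative HTS of the Tox21 10K library in HEK293 cells bearing a stably integrated UAS-controlled beta-lactamase reporter. Compound exposure lasted 16 h at 37C. Reporter activity was detected by FRET substrate fluorescence after 2 h at room temperature.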
# [5] = qHTS assay to identify small molecule antagonists of the androgen receptor (AR) signaling pathway using the MDA cell line - cell viability counter screen (AID 743041; further: potency means the concentration at half of the fitted maximal effect; nearly all actives have a fitted effect of over 45% in size); details: MDA-kb2 viability, CellTiter-Fluor, 16 h, cells co-treated with R1881 androgen agonist; viability change, negative = cytotoxic: at 70.3 µM (top of the series) unless noted
# Procedure, shortened: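 Using the breast carcinoma line MDA-kb2 AR-luc, test chemicals were co-incubated with R1881 for 16 h; CellTiter-Fluor reagent, added at 15.5 h, provided a fluorescence measure of live cells.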
# [6] = qHTS assay to identify small molecule antagonists of the thyroid receptor (TR) signaling pathway - cell viability counter screen (AID 743064); details: GH3.TRE-Luc viability, CellTiter-Fluor, 24 h; activity change, negative = cytotoxic: at 70.3 µM (top of the series) unless noted; further: potency means the concentration at half of the fitted maximal effect; nearly all actives have a fitted effect of over 50% in size
# Procedure, shortened: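 Rat GH3 pituitary tumor cells stably expressing two TR response elements driving luciferase were plated, rested 4 h, then dosed with library compounds and T3 (1 nM final). After 23.5 h at 37 °C, CellTiter-Fluor was added for 30 min and fluorescence recorded.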
# [7] = tested on: thyroid hormone receptor (rat, GH3 cells); experiment: qHTS assay to identify small molecule agonists of the thyroid receptor (TR) signaling pathway (AID 743066; calls by dose curve; further: on the % scale 0 is the no-effect control and ±100 the full control effect); details: GH3.TRE-Luc cells, TR agonist luciferase, 24 h; activation: at 83.9 µM (top of the series) unless noted
# [8] = target: Estrogen receptor (Homo sapiens) (UniProt P03372); experiment: qHTS assay to identify small molecule antagonists of the estrogen receptor alpha (ER-alpha) signaling pathway (AID 743069; active means well fitted curve in the direction sought with a large enough effect in the signal ratio in the repeat runs, not every such curve was filed as active; inconclusive means weak or mixed curves, or effect the other way; inactive means no such curve, though single readings can be large or run the other way; the % refers to the signal ratio; further: potency means the concentration at half of the fitted maximal effect); details: HEK293 ER-alpha-UAS-bla, beta-lactamase ratio, antagonist mode; activity, negative = inhibition: at 69.4 µM (top of the series) unless noted
# Sequence of UniProt P03372 (P03372 whole entry, looked up): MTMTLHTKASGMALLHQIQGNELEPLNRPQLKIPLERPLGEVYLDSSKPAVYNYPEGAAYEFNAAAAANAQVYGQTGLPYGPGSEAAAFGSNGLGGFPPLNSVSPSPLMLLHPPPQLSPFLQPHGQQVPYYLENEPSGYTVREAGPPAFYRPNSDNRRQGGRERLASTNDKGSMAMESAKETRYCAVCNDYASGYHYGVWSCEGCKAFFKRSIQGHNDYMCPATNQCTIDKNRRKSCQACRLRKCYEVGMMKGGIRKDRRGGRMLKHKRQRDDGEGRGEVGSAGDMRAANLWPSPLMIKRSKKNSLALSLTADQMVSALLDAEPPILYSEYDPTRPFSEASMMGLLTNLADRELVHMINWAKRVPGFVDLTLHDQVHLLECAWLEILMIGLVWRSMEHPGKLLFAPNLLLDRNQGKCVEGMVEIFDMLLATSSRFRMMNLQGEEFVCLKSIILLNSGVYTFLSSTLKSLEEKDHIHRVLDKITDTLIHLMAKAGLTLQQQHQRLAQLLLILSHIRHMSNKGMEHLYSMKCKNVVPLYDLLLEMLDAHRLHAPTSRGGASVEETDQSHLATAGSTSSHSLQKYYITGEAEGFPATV
# Procedure, shortened: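 Fluorescence intensity from a beta-lactamase FRET substrate served as the read-out. Cells: HEK293 with stably integrated ER-alpha-UAS-bla reporter. Agonist 17beta-estradiol was co-added with compounds; incubation 18 hr at 37C, substrate 2 hr at room temperature.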
# [9] = qHTS assay to identify small molecule antagonists of the estrogen receptor alpha (ER-alpha) signaling pathway - cell viability counter screen (AID 743074; calls by dose curve; further: potency means the concentration at half of the fitted maximal effect; nearly all actives have a fitted effect of over 45% in size)
# [10] = target: Estrogen receptor (Homo sapiens) (UniProt P03372); experiment: qHTS assay to identify small molecule agonists of the estrogen receptor alpha (ER-alpha) signaling pathway using the BG1 cell line (AID 743079); details: BG1Luc4E2 cells, ERE-luciferase agonist, 22 h; activation: at 70.3 µM (top of the series) unless noted; further: nearly all actives have a fitted effect of over 20% in size; further: potency means the concentration at half of the fitted maximal effect; on activation: on the % scale 0 is the no-effect control and ±100 the full control effect
# [11] = qHTS assay to identify small molecule antagonists of the estrogen receptor alpha (ER-alpha) signaling pathway using the BG1 cell line - cell viability counter screen (AID 743081);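 further: compound given together with 17beta-estradiol as the ER stimulus; potency means the concentration at half of the fitted maximal effect; nearly all actives have a fitted effect of over 45% in size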
# Aromatase (Homo sapiens) = Aromatase (Homo sapiens) (UniProt P11511); experiment: qHTS assay to identify aromatase inhibitors (AID 743083); further: potency means the concentration at half of the fitted maximal effect; nearly all actives have a fitted effect of over 55% in size
# Sequence of UniProt P11511 (P11511 whole entry, looked up): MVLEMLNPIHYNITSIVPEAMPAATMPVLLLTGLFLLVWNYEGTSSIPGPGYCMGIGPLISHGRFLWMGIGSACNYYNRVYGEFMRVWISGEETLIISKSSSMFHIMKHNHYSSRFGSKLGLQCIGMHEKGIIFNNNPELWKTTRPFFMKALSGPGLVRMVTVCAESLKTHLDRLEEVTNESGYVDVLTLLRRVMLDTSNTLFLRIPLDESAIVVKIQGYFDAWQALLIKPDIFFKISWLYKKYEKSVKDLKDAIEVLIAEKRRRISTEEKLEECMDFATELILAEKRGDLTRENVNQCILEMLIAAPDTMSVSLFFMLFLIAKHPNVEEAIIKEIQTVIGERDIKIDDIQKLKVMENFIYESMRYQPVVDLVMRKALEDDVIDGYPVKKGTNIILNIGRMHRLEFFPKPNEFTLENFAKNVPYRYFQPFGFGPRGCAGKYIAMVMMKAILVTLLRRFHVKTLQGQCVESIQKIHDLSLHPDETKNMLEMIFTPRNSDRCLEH
# [12] = qHTS assay to identify aromatase inhibitors - cell viability counter screen (AID 743084); details: MCF-7 aro ERE viability, CellTiter-Fluor, 24 h; activity change, negative = cytotoxicity: at 70.3 µM (top of the series);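 further: cells stimulated with testosterone during compound exposure; potency means the concentration at half of the fitted maximal effect; nearly all actives have a fitted effect of over 55% in size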
# [13] = qHTS assay for identifying genotoxic compounds that show differential cytotoxicity against isogenic chicken DT40 cell lines with known DNA damage response pathways - Rad54/Ku70 mutant cell line (AID 743015); details: DT40 Rad54/Ku70 mutant viability, CellTiter-Glo, 40 h; activity change, negative = cytotoxicity: at 66.8 µM (top of the series); further: potency means the concentration at half of the fitted maximal effect; nearly all actives have a fitted effect of over 60% in size
# [14] = qHTS assay to identify small molecule antagonists of the androgen receptor (AR) signaling pathway - cell viability counter screen (AID 743033; further: nearly all actives have a fitted effect of over 45% in size; further: potency means the concentration at half of the fitted maximal effect); details: AR-bla HEK293 viability, CellTiter-Glo luminescence, 16 h; activity change, negative = cytotoxicity: at 58.5 µM (top of the series)
# [15] = qHTS assay to identify small molecule antagonists of the thyroid receptor (TR) signaling pathway (AID 743065); further: potency means the concentration at half of the fitted maximal effect; nearly all actives have a fitted effect of over 55% in size
# Procedure, shortened: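 Antagonism measured as loss of luciferase signal in GH3 cells stably carrying a TRE-luciferase reporter, co-treated with compound and T3 (1 nM final) for 23.5 h at 37 C. Viability was read in the same well by CellTiter-Fluor.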
# [16] = target: Androgen receptor (Homo sapiens) (UniProt P10275); experiment: qHTS assay to identify small molecule antagonists of the androgen receptor (AR) signaling pathway using the MDA cell line (AID 743042)
# Procedure, shortened: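 Antagonist mode: compounds plus R1881 agonist added to MDA-kb2 AR-luc cells, incubated 16 h at 37C. Luciferase reporter luminescence quantified, with multiplexed CellTiter-Fluor readout for cell viability.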
# [17] = target: Estrogen receptor (Homo sapiens) (UniProt P03372); experiment: qHTS assay to identify small molecule agonists of the estrogen receptor alpha (ER-alpha) signaling pathway (AID 743075; calls by dose curve; further: potency means the concentration at half of the fitted maximal effect)
# Tags describe the fitted curve by direction and shape or compound fluorescence and quenching.
compound,measurement,setting,value
NC(=O)N1C(=O)C(C(=O)c2cc(Cl)cs2)c2cc(F)c(Cl)cc21 (stereo not drawn),Potency,[1],"inconclusive: 68.6 µM [cytotoxic, single point]"
same,Potency,[2],"inconclusive: 77 µM [cytotoxic, single point]"
same,"activity change, negative = inhibition",[3],inconclusive: -53.8%
same,activation,[4],inconclusive: 0.0992%
same,Potency,[5],"inconclusive: 54.5 µM [cytotoxic, partial curve]"
same,Potency,[6],active: 61.1 µM
same,activation,[7],inconclusive: -8.72% [phenotype inactive]
same,Potency,[8],"inconclusive: 24.5 µM [inhibitor, full curve]"
same,Potency,[9],active: 49 µM
same,Potency,[10],inconclusive: 30.6 µM [inhibitor]
same,Potency,[11],active: 8.63 µM
same,Potency,Aromatase (Homo sapiens),"inconclusive: 68.6 µM [inhibitor, single point]"
same,Potency,[12],"inconclusive: 54.5 µM [cytotoxic, partial curve]"
OCCNCCO,Potency,[1],inconclusive: 68.6 µM [cytotoxic]
same,Potency,[2],"inconclusive: 68.6 µM [cytotoxic, single point]"
same,Potency,[13],"inconclusive: 68.6 µM [cytotoxic, single point]"
same,Potency,[8],"inconclusive: 11 µM [activator, full curve]"
same,Potency,[9],active: 17.4 µM
same,activation,[10],inconclusive: -8.18% [phenotype inactive]
OCCCCCCCCCCCCBr,Potency,[1],"inconclusive: 3.92 µM [cytotoxic, full curve, poor fit]"
same,Potency,[2],active: 3.92 µM
same,Potency,[14],"inconclusive: 24.9 µM [cytotoxic, partial curve, poor fit]"
same,Potency,[6],"inconclusive: 27.7 µM [cytotoxic, partial curve]"
same,Potency,[15],"inconclusive: 62.1 µM [inhibitor, partial curve]"
O=C(/N=N/C(=O)OCc1ccccc1)OCc1ccccc1,Potency,[1],"inconclusive: 68.6 µM [cytotoxic, single point]"
same,Potency,[2],"inconclusive: 68.6 µM [cytotoxic, single point]"
same,Potency,[13],active: 61.1 µM
same,Potency,[8],inactive
same,Potency,[9],"inconclusive: 15.5 µM [rising, full curve, poor fit]"
same,Potency,[10],"inconclusive: 21.7 µM [activator, partial curve, poor fit]"
CCCC/C=C/C=C\C=O,Potency,[1],"inconclusive: 61.1 µM [cytotoxic, single point]"
same,Potency,[2],"inconclusive: 61.1 µM [cytotoxic, partial curve]"
same,Potency,[14],"inconclusive: 49 µM [cytotoxic, partial curve, poor fit]"
same,Potency,[3],"inconclusive: 54.9 µM [falling, single point]"
same,Potency,[15],"inconclusive: 68.6 µM [inhibitor, single point]"
same,Potency,[10],inactive
Oc1ccc2ccccc2c1,Potency,[1],"inconclusive: 8.85 µM [rising, single point]"
same,Potency,[2],"inconclusive: 70.3 µM [cytotoxic, partial curve, poor fit]"
same,Potency,[14],"inconclusive: 56.3 µM [cytotoxic, single point]"
same,Potency,[3],"inconclusive: 25.1 µM [rising, partial curve, poor fit]"
same,"activity change, negative = inhibition",[3],inconclusive: -2.14%
same,Potency,[4],inactive
same,Potency,[16],inactive
same,Potency,[6],"inconclusive: 13.7 µM [rising, single point]"
same,Potency,[9],"inconclusive: 63.2 µM [cytotoxic, single point]"
same,Potency,[12],"inconclusive: 70.3 µM [cytotoxic, single point]"
Cn1c(=O)c2c(ncn2C)n(C)c1=O,Potency,[1],"inconclusive: 69.4 µM [cytotoxic, single point]"
same,Potency,[2],inactive and active: 49.2 µM
same,Potency,[14],"inconclusive: 55.6 µM [cytotoxic, partial curve, poor fit]"
same,Potency,[6],"inconclusive: 39 µM [cytotoxic, partial curve]"
same,Potency,[11],"inconclusive: 69.4 µM [cytotoxic, single point]"
same,Potency,[12],active: 55.1 µM
CC(N=C(NC#N)Nc1ccncc1)C(C)(C)C (stereo not drawn),Potency,[1],"inconclusive: 29.8 µM [cytotoxic, single point]"
same,Potency,[2],inactive
same,Potency,[13],"inconclusive: 33.5 µM [cytotoxic, single point]"
same,Potency,Aromatase (Homo sapiens),"inconclusive: 23.7 µM [inhibitor, partial curve]"
COc1ccc2nc(N)sc2c1,Potency,[1],"inconclusive: 8.63 µM [rising, partial curve]"
same,Potency,[2],"inconclusive: 34.4 µM [cytotoxic, partial curve]"
same,"activity change, negative = inhibition",[3],inconclusive: 9.15%
same,Potency,[17],"inconclusive: 61.7 µM [falling, single point]"
same,Potency,[10],active: 30.6 µM and active: 54.5 µM
COS(=O)(=O)C(F)(F)F,Potency,[1],"inconclusive: 71.7 µM [cytotoxic, single point]"
same,Potency,[2],"inconclusive: 71.7 µM [cytotoxic, single point]"
same,Potency,[14],inconclusive: 64.4 µM [cytotoxic]
same,Potency,[5],"inconclusive: 28.5 µM [rising, partial curve]"
O=C(O)c1cc(-c2ccccc2)nc2ccccc12,Potency,[1],inconclusive: 69.4 µM
same,Potency,[2],"inconclusive: 27.3 µM [rising, full curve, poor fit]"
same,Potency,[14],"inactive and inconclusive: 49.6 µM [cytotoxic, partial curve, poor fit]"
same,Potency,[3],"inconclusive: 22.1 µM [rising, partial curve, poor fit]"
same,Potency,[4],inactive and inconclusive: 19.7 µM
same,Potency,[7],inactive
same,Potency,[9],"inconclusive: 0.275 µM [rising, full curve]"
same,Potency,[11],"inconclusive: 54.5 µM [rising, partial curve, poor fit]"
